The other results are listed elsewhere or left out.
What follows are compounds tested on HepG2 (assay: cytotoxicity call (relative viability < 0.9)). Settings: 10 µM.

| SMILES | cytotoxicity call |
| --- | --- |
| Cc1ccc(S(=O)(=O)N(C)C[C@@H]2OCCCC[C@@H](C)Oc3ccc(NC(=O)Nc4ccccc4)cc3C(=O)N([C@@H](C)CO)C[C@@H]2C)cc1 | inactive |
| C[C@H](CO)N1C[C@H](C)[C@@H](CN(C)C(=O)Nc2ccccc2)Oc2ccc(NS(C)(=O)=O)cc2C1=O | inactive |
| CC(C)NC(=O)N(C)C[C@H]1Oc2cc(C#Cc3ccccn3)ccc2S(=O)(=O)N([C@H](C)CO)C[C@@H]1C | inactive |
| COc1ccc(NC(=O)N(C)C[C@H]2Oc3c(NC(=O)Nc4ccc(C(F)(F)F)cc4)cccc3C(=O)N([C@@H](C)CO)C[C@@H]2C)cc1 | inactive |
| C[C@H]1CN([C@@H](C)CO)C(=O)c2cc(NC(=O)CCN3CCOCC3)ccc2O[C@H]1CN(C)Cc1ccncc1 | inactive |
| C[C@@H]1CN([C@H](C)CO)S(=O)(=O)c2ccc(C#Cc3cccc(F)c3)cc2O[C@@H]1CN(C)S(=O)(=O)c1cn(C)cn1 | inactive |
| C[C@@H]1CN([C@H](C)CO)C(=O)CCCn2cc(nn2)CO[C@@H]1CN(C)S(=O)(=O)c1ccc2ccccc2c1 | inactive |
| C[C@H]1CN([C@@H](C)CO)C(=O)c2c(c3ccccc3n2C)-c2ccccc2CO[C@@H]1CN(C)C(=O)Nc1cccc(C(F)(F)F)c1 | inactive |
| O=C(C[C@H]1CC[C@@H]2[C@H](COC[C@H](O)CN2C(=O)Nc2ccc3c(c2)OCO3)O1)N1CCN(c2ccccc2)CC1 | inactive |
| O=C(NC1CCCCC1)N(CCCl)[NH2+][O-] | inactive |
| C[C@H]1O[C@@H](O[C@H]2[C@@H](O)C[C@H](O[C@H]3[C@@H](O)C[C@H](O[C@H]4CC[C@@]5(C)[C@H](CC[C@@H]6[C@@H]5CC[C@]5(C)[C@@H](C7=CC(=O)OC7)CC[C@]65O)C4)O[C@@H]3C)O[C@@H]2C)C[C@H](O)[C@@H]1O | active |
| COc1ccc(CN(C)C[C@H]2OCCCC[C@H](C)Oc3ccc(NC(=O)NC4CCCCC4)cc3C(=O)N([C@H](C)CO)C[C@@H]2C)cc1 | inactive |
| CCN(CC)c1nc(C#N)nc(OC)n1 | inactive |
| COC(=O)c1c(N)c(C#N)c2n1CCC2 | inactive |
| Cn1cnc(CCNC(=O)C[C@@H]2CC[C@@H]3[C@H](COC[C@H](O)CN3C(=O)Nc3ccc(Cl)cc3)O2)c1 | inactive |
| COC(=O)C[C@H]1C=C[C@H](N)[C@H](CO)O1 | inactive |
| COc1ccc(CCNC(=O)[C@@]2(Cc3ccccc3I)c3ccccc3C(=O)N(C3CCCCC3)[C@H]2c2ccc(CO)cc2)cc1 | inactive |
| C[C@H](CO)N1C[C@H](C)[C@H](CN(C)Cc2ccc3c(c2)OCO3)Oc2ccc(NS(=O)(=O)c3ccccc3)cc2CC1=O | inactive |
| Cc1noc(C)c1S(=O)(=O)N(C)C[C@@H]1OCc2cn(nn2)CCCC(=O)N([C@@H](C)CO)C[C@@H]1C | inactive |
| OCCC1CCOCC1 | inactive |

| SMILES | cytotoxicity call |
| --- | --- |
| Cc1noc(C)c1NC(=O)Nc1ccc2c(c1)C(=O)N([C@@H](C)CO)C[C@@H](C)[C@@H](CN(C)Cc1ccc(Cl)c(Cl)c1)O2 | inactive |
| CC=Cc1ccc2n(c1=O)C[C@H]1[C@H](CO)[C@@H](C(=O)NCCc3cn(C)cn3)N(C(=O)CC)[C@@H]21 | inactive |
| COc1ccc(CN(C)C[C@H]2OCCCC[C@H](C)Oc3ccc(NC(=O)Nc4cccc5ccccc45)cc3C(=O)N([C@H](C)CO)C[C@@H]2C)cc1 | inactive |
| CN(Cc1cnc2nc(N)nc(N)c2n1)c1ccc(C(=O)NC(CCC(=O)O)C(=O)O)cc1.O (stereo not given) | active |
| CC(C)[Si](C#CCCCC#N)(O[C@H](c1ccccc1)c1cn(Cc2cccc(Cl)c2)nn1)C(C)C | inactive |
| COC(=O)C1=C(C)NC(C)=C(C(=O)OCC(C)C)[C@@H]1c1ccccc1[N+](=O)[O-] | inactive |
| Cc1noc(C)c1S(=O)(=O)Nc1ccc2c(c1)C(=O)N([C@@H](C)CO)C[C@H](C)[C@@H](CN(C)S(C)(=O)=O)O2 | inactive |
| Nc1ncn([C@@H]2O[C@H](CO)[C@@H](O)[C@H]2O)c(=O)n1 | active |
| Cc1noc(C)c1S(=O)(=O)Nc1ccc2c(c1)C(=O)N([C@H](C)CO)C[C@H](C)[C@H](CN(C)S(=O)(=O)c1cn(C)cn1)OCCCC[C@H](C)O2 | inactive |
| COc1ccc(CN(C)C[C@H]2Oc3c(NS(C)(=O)=O)cccc3C(=O)N([C@@H](C)CO)C[C@H]2C)cc1 | inactive |
| CNc1ncnc(Cl)c1N | inactive |
| CCOC(=O)[C@H](Cc1ccccc1)NC(=O)c1cc(Cl)c(OCCN2CCN(C)CC2)c(Cl)c1O | inactive |
| CC(C)NCCCn1c(Sc2cc3c(cc2I)OCO3)nc2c(N)ncnc21 | active |
| C[C@@H]1CCCCO[C@@H](CN(C)S(=O)(=O)c2ccccc2)[C@@H](C)CN([C@@H](C)CO)C(=O)c2cc(NC(=O)C3CCCCC3)ccc2O1 | inactive |
| C[C@@H]1CN([C@@H](C)CO)C(=O)c2c(c3ccccc3n2C)-c2ccccc2CO[C@@H]1CN(C)C(=O)c1cc(Cl)cc(Cl)c1 | active |
| COc1ccc(S(=O)(=O)N(C)C[C@H]2Oc3c(NC(=O)c4cnccn4)cccc3C(=O)N([C@@H](C)CO)C[C@H]2C)cc1 | inactive |
| Cc1ccc(S(=O)(=O)Nc2ccc3c(c2)C(=O)N([C@H](C)CO)C[C@H](C)[C@@H](CN(C)C(=O)Nc2ccc(C(F)(F)F)cc2)O3)cc1 | inactive |
| C[C@H](CO)N1C[C@H](C)[C@@H](CN(C)S(C)(=O)=O)Oc2ccc(NS(=O)(=O)c3ccc(Cl)cc3)cc2C1=O | inactive |
| C[C@@H]1CCCCO[C@H](CN(C)C(=O)NC2CCCCC2)[C@@H](C)CN([C@H](C)CO)C(=O)c2cc(NC(=O)Cc3ccccc3)ccc2O1 | inactive |
| C[C@@H]1CCCCO[C@@H](CN(C)S(=O)(=O)c2ccc(Cl)cc2)[C@@H](C)CN([C@H](C)CO)C(=O)c2cc(NC(=O)CCC(F)(F)F)ccc2O1 | inactive |
